According to PubChem BioAssay (NCATS):
Inconclusive means that the source gave no clear call. Such entries were picked first, then a sample of the others. Potencies of inconclusive entries are left out as doubtful fits. Calls of active or inactive are those of the source. Calls follow the shape of the dose curve; as a rule, active = well fitted cell-killing curve with a large enough effect; inconclusive = small, poorly fitted or top-dose-only effect; inactive = no such curve, though single readings can be large or run the other way.

Assay: qHTS of pediatric cancer cell lines to identify multiple opportunities for drug repurposing: Primary screen for SK-N-SH cells (AID 1347098); also: nearly all actives have a fitted effect of over 65% in size
Conditions: SK-N-SH viability, CellTiter-Glo luminescence, 48 h; series mostly up to 57 µM
Method in brief: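 Cells (500-1,000/well) rested 5 h, then received compounds for 48 h; metabolically active cells were measured by CellTiter-Glo luminescence. Final concentrations spanned up to 46 µM (MIPE, 11-point) or 0.59 nM-46 µM (NPC, 8-point) in primary screens, 11-point in follow-ups.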
Potency is read from the fitted curve at half-maximal effect; tags tell the direction and shape of the fitted curve.

Q: With `CC(=O)[O][Hg][c]1ccccc1` as the molecule, how does the Potency read?
A: active: 970 nM

Q: For `CCNC(=O)C[C@@H]1N=C(c2ccc(Cl)cc2)c2cc(OC)ccc2-n2c(C)nnc21`, which Potency is on record?
A: inconclusive [cytotoxic, full curve]

Q: Which Potency does the source give for `N=c1c2c(-c3ccccc3)c(-c3ccccc3)n(Cc3ccccc3)c2ncn1C1CCC(O)CC1` (stereo not drawn) here?
A: inconclusive [cytotoxic, full curve]

Q: For `CC[C@H]1C=CC=CC[C@@H](C)[C@H](O)[C@@](C)(O)C(=O)[C@@H](C)[C@H](O)[C@@H](C)C(=O)[C@@H](C)[C@H](O)[C@@H](C)C=CC(=O)O[C@@H]2[C@@H](C)[C@H](CC1)O[C@]1(CC[C@H](C)[C@H](C[C@@H](C)O)O1)[C@H]2C`, which Potency is on record?
A: inactive

Q: With `NCc1cccnc1` as the molecule, how does the Potency read?
A: inactive

Q: With `CCS(=O)(=O)C(C)(C)S(=O)(=O)CC` as the molecule, how does the Potency read?
A: inactive

Q: For `CN(C)C(=S)SSC(=S)N(C)C`, which Potency is on record?
A: active: 244 nM

Q: For `C[C@@H]1O[C@@H](O[C@@H]2C=C3CC[C@@H]4[C@H](CC[C@]5(C)[C@@H](c6ccc(=O)oc6)CC[C@]45O)[C@@]3(C)CC2)[C@H](O)[C@H](O)[C@H]1O`, which Potency is on record?
A: active: 68.7 nM
